# Test results: PubChem BioAssay AID463173 (ICCB-Longwood Screening Facility, Harvard Medical School, 2010)
# In all, about 52,000 compounds went through this assay and about 4,300 (8.3%) were called active. Cut-off read from the data, not from the text of the source: active = survival mostly below about 52% (no sharp cut-off); inactive = mostly above about 56%. The list shows a part of the results.
# Tested on: DeltatarO mutant
# Experiment: growth inhibition of S. aureus wild type versus tarO mutant, primary screen, teichoic acid synthesis inhibitors, RN4220, OD600 (AID 463173)
# Conditions: OD600, 18 h, hits give low values, screened at 18.75 µg/mL (by protocol)
row,SMILES,survival
1,CCc1oc(C(=O)O)cc1CN,inactive: 97%
2,C/C(N)=C\C(=O)Nc1ccccc1,inactive: 83%
3,COc1cccc(CNC(=O)CCCN2C(=O)CCn3nc(-c4cccn4C)cc32)c1,inactive: 94%
4,Cc1nnc(N(C)C(=O)c2ccc3c(c2)OCO3)s1,inactive: 80%
5,CCOC(=O)c1cccc(NC(=O)Cn2c(=O)nc(-c3ccccc3F)c3cc(Cl)ccc32)c1,inactive: 76%
6,CCn1c(=O)c2cc(C(=O)N(CC(C)C)CC(C)C)sc2c2ccccc21,active: -4%
7,CCOc1ccc(CCNC(=O)c2csc3c2CCCCC3)cc1,inactive: 73%
8,CCCn1c(=N)c(C(=O)NC2CCCC2)cc2c(=O)n3cccc(C)c3nc21,inactive: 60%
9,COc1ccc(/C=C(/C#N)c2nc(-c3ccc(-c4ccccc4)cc3)cs2)cc1OC,inactive: 101%
10,COc1ccc(-c2c(C)nn3c(N4CCN(c5ccccc5)CC4)cc(C)nc23)cc1OC,inactive: 64%
11,COc1ccc(NC(=O)CC2C(=O)N(c3ccc(F)cc3)C(=O)N2Cc2ccc3c(c2)OCO3)cc1 (configuration not stated),inactive: 101%
12,CCCCOc1ccc(CNC(=O)c2cc3n(n2)CCCN(Cc2ccc(C)cc2)C3=O)cc1,inactive: 75%
13,COc1ccc(OCCn2c(C)nc3cc(C)c(C)cc32)cc1,inactive: 57%
14,CCCCSCCCNC(=O)c1cn(CC)c2ccc(S(=O)(=O)N3CCCCCC3)cc2c1=O,inactive: 61%
15,CCc1cccc(C)c1NC(=O)c1cc(S(=O)(=O)N2CCOCC2)cn1C,inactive: 68%
16,CCOC(=O)c1ccccc1NC(=O)n1ncc2cc(Cl)ccc21,inactive: 85%
17,Cc1noc(C)c1S(=O)(=O)Nc1ccc(C(=O)Nc2ccc(Br)cc2)cc1,active: 36%
18,COc1cc(NC(=O)CCn2cnc3ccccc3c2=O)cc(OC)c1,inactive: 122%
19,CNC(=O)CSc1nnc(NC(=O)Nc2ccccc2)s1,inactive: 94%
20,Cc1ccc2oc3c(c(=O)c2c1)C(c1ccc(OCC(N)=O)cc1)N(Cc1ccc2c(c1)OCO2)C3=O (configuration not stated),inactive: 93%
21,O=C(CSc1nnc(-c2ccc(Br)cc2)n1-c1ccccc1)c1ccccc1,inactive: 69%
22,CCOc1ccc(-c2cc(C(=O)N3CCN(c4cccc(C(F)(F)F)c4)CC3)c3ccccc3n2)cc1,inactive: 102%
23,COc1ccc(NC(=O)C(=O)NCC2(c3ccccc3)CCCC2)c(OC)c1,inactive: 63%

row,SMILES,survival
1,COc1ccc(C(=O)NCC(c2ccc3c(c2)OCO3)N2CCN(c3ccc(F)cc3)CC2)cc1 (configuration not stated),inactive: 86%
2,COc1cccc(/C=N/NC(=O)COc2c(C)cccc2C)c1O,inactive: 88%
3,CC1(C)CC(=O)C2=C(C1)NC1=C(C(=O)CC(C)(C)C1)C2c1ccc2c(c1)OCO2,inactive: 96%
4,Cc1ccc(N(CC(C)C)S(=O)(=O)c2nnc(NC(=O)c3cccs3)s2)cc1,active: 34%
5,Fc1ccc(Nc2nc(Nc3ccc(F)cc3)nc(N3CCOCC3)n2)cc1,inactive: 87%
6,CCCCn1c(SCC(=O)Nc2ccc(F)cc2)nc2c(sc3ccccc32)c1=O,inactive: 94%
7,CC(C)c1ccc(NC(=O)Cn2nnc(C(=O)NCc3cccs3)c2N)cc1,inactive: 112%
8,Cc1ccc(O)c(C2=Nc3ccccc3N=C(c3cccc(F)c3)C2)c1,inactive: 121%
9,O=C(Nc1ccc(C(=O)N2CCN(c3ccc(Cl)cc3)CC2)cc1)c1nsc2ccccc12,inactive: 72%
10,Cc1ccc2oc(-c3cc(NC(=O)c4cccs4)cc(C)c3O)nc2c1,inactive: 138%
11,COc1ccc(Br)cc1CNC(=O)C1COc2ccccc2C1 (configuration not stated),inactive: 49%
12,CCOCN(C(=O)Cn1cnc2cc(C)c(C)cc21)c1c(C)cccc1CC,inactive: 50%
13,CCc1ccccc1NC(=O)c1cc(-c2ccc3c(c2)OCO3)on1,inactive: 147%
14,CCOc1ccc(/C=C/c2nc(C#N)c(N3CCN(c4ccccc4)CC3)o2)cc1,inactive: 77%
15,CC1CCCCN1C(=O)CN1CCN(C)CC1 (configuration not stated),inactive: 93%
16,CCOc1ccc(N(CC)S(=O)(=O)N2CCCC(C(=O)NCCc3ccccc3OC)C2)cc1 (configuration not stated),inactive: 80%
17,CC1CCCCN1C(=O)CSc1nnc(-c2ccccc2Cl)o1 (configuration not stated),inactive: 74%
18,COc1ccc(-c2cn3nc(N4CCC(C(=O)Nc5ccc(C)cc5)CC4)sc3n2)cc1,inactive: 120%
19,Cc1cccc(Oc2coc3cc(OCC(=O)NC4CCCCC4)ccc3c2=O)c1,inactive: 48%
20,CCOC(=O)c1oc2c(c1C)/C(=N/O)CCC2,inactive: 93%
21,CN(C)c1cc[n+](Cc2ccccc2)cc1,inactive: 99%
22,CCc1ccc(-n2nc(C)c3c(C(=O)Nc4cc(C)ccc4C)cc(C)nc32)cc1,inactive: 60%
23,CCN(CC)CC(=O)Nc1nc2ccc(OC)cc2s1,inactive: 76%

row,SMILES,survival
1,CCOc1ccccc1CNC(=O)C1CCCN(S(=O)(=O)c2ccc3c(ccn3C)c2)C1 (configuration not stated),inactive: 70%
2,COC(=O)c1sc2cccc(F)c2c1S(=O)(=O)N1CCN(c2ccc(C)cc2C)CC1,inactive: 102%
3,CC1CCN(S(=O)(=O)c2nnc(NC(=O)c3cccc(F)c3)s2)CC1,active: 31%
4,COc1ccccc1N1CCN(c2cc(C)nc3nc(-c4ccc(Cl)cc4)nn23)CC1,active: 38%
5,COc1ccc(OC)c(S(=O)(=O)NCCc2csc3nc(-c4ccccc4)nn23)c1,active: -1%
6,Cc1ccc(NC(=O)c2cc(S(=O)(=O)N3CCCC3)c[nH]2)c(C)c1,inactive: 105%
7,Cc1cccc(N2CCN(C(=O)c3ccc4c(c3)c(C)c(C)n4C)CC2C)c1 (configuration not stated),inactive: 104%
8,COc1nc(-c2ccc(C)cc2)ccc1-c1noc(-c2ccc(C(C)(C)C)cc2)n1,inactive: 47%
9,Cc1ccc(-n2c(SCC(N)=O)nc3c([nH]c4ccccc43)c2=O)cc1,inactive: 130%
10,Cc1cncn1CCc1nc2c3ccccc3nc(SCC(=O)Nc3ccccc3F)n2n1,inactive: 83%
11,Cc1ccc(Cn2c(C)c(CNC(C)c3ccccc3)c(C(=O)O)c2C)cc1 (configuration not stated),inactive: 125%
12,Cc1ccc(Cl)cc1N1CCN(c2ncnc3onc(-c4ccc(F)cc4)c23)CC1,inactive: 97%
13,Cc1ccc(S(=O)(=O)Cc2nc(-c3ccc(C(=O)NCc4ccccc4F)cc3)oc2C)cc1,inactive: 117%
14,CC(C)(C)c1ccc(-c2noc(CCC(=O)Nc3cccc(Cl)c3)n2)cc1,inactive: 87%
15,Cc1ccc(S(=O)(=O)c2cn(C)c3cc(N4CCCCC4)c(F)cc3c2=O)cc1,inactive: 71%
16,CC(C)(C)C(=O)NC(Cc1c[nH]c2ccccc12)C(=O)O (configuration not stated),inactive: 100%
17,COc1ccc(C)cc1NC(=O)N1CCC(CN2CCC(C)CC2)CC1,inactive: 91%
18,CCc1c(C)c2ccc(O)c(CN3CCN(c4ccccc4)CC3)c2oc1=O,active: 56%
19,CCOc1ccc2oc(=O)cc(CN3CCN(c4ccc(Cl)cc4)CC3)c2c1,inactive: 97%
20,CC(=O)N1CCc2cc(Br)cc(S(=O)(=O)CCC(=O)Nc3ccc(C)cc3Cl)c21,active: 47%
21,CCOC(=O)c1c(NC(=O)COc2ccc(Cl)cc2C)sc(C(C)=O)c1C,inactive: 55%
22,CCN1CCN(c2cc(C)c3cc(NC(=O)c4ccccc4F)ccc3n2)CC1,active: 43%
23,O=c1[nH]cnc2scc(-c3ccsc3)c12,inactive: 104%

row,SMILES,survival
1,Cc1ccc(N2CCN(c3nc4c(S(=O)(=O)c5ccc(C)c(C)c5)nnn4c4ccccc34)CC2)c(C)c1,inactive: 82%
2,Cc1c(C(=O)N(Cc2ccc(N(C)C)cc2)CC2CCCO2)oc2ccc(Br)cc12 (configuration not stated),inactive: 58%
3,CCc1cccc(NC(=O)C(CC(C)C)NS(=O)(=O)c2ccc3c(c2)oc(=O)n3C)c1 (configuration not stated),inactive: 114%
4,CCC(=O)N1CCc2cc(CNC(=O)Nc3cc(Cl)ccc3C(=O)OC)ccc21,inactive: 74%
5,COc1ccccc1CN1CCC(CNC(=O)c2cnn(-c3ccc(C)c(C)c3)c2C2CCN(C(=O)OC(C)(C)C)CC2)CC1,inactive: 91%
6,N#CCC(=O)N1CCN(c2ccccc2)CC1,inactive: 101%
7,Brc1ccc2nc(-c3ccccc3)c(Nc3ccc4c(c3)OCO4)n2c1,inactive: 75%
8,O=C(c1cc2sccc2n1Cc1ccccc1)N1CCCCC1,inactive: 109%
9,Cc1cc(OCC(=O)NCC2(N3CCOCC3)CCCCC2)ccc1Cl,inactive: 67%
10,CCc1noc(-c2ccc(N3CCCCC3)c([N+](=O)[O-])c2)n1,inactive: 56%
11,C=CCNC(=O)c1cc2sccc2n1Cc1ccccc1,inactive: 85%
12,CC(Sc1nnc(-c2ccncc2)o1)C(N)=O (configuration not stated),inactive: 67%
13,Cc1oc(-c2cccc(Cl)c2)nc1CN1CCC(C(=O)NCCc2ccc(Cl)cc2)CC1,inactive: 87%
14,CCc1ccc(C2=C(C)C(N3CCC(C(=O)NCCc4ccco4)CC3)=NS2(=O)=O)cc1,inactive: 83%
15,COc1cccc(OCC(=O)Nc2nnc3n2CCS3)c1,inactive: 78%
16,Cc1cccc(NC(=O)CSc2nc(=O)n(Cc3cccnc3)c3c2CCC3)c1C,inactive: 77%
17,O=C(NC1CCCCC1)N(Cc1cc2cc3c(cc2[nH]c1=O)OCCO3)C1CCCCC1,inactive: 76%
18,O=C(Nc1cccc(Cl)c1)C1CCCN1S(=O)(=O)c1cccc2cccnc12 (configuration not stated),inactive: 99%
19,Cn1nnnc1SCCNCc1ccc(OCc2ccc(Cl)cc2)cc1,inactive: 68%
20,COc1ccccc1-c1nnc(SCC(=O)c2ccc(F)cc2)n1-c1ccccc1,active: 6%
21,CCc1ccc(CNC(=O)CN2C(=O)CCn3nc(-c4cn(C)c5ccccc45)cc32)cc1,inactive: 81%
22,Cc1cc(Cl)ccc1OCc1cc(=O)n2c3c(sc2n1)CCCC3,inactive: 79%
23,C=Cc1ccc(Cn2c(=O)cc(C)c3c(C)nn(C)c32)cc1,active: 8%
